PubChem BioAssay AID1671188 (National Center for Advancing Translational Sciences (NCATS), 2021)
“And” between values parts separate entries of the source, which are not always exact repeats. Equal entries are not always repeated. The whole screen tested about 100,000 compounds, of which about 250 (0.25%) were called active. The shares of active, inactive and inconclusive entries below differ from those in the screen. Calls come from the whole dose curve; as a rule, active = well fitted inhibition curve with a large enough effect; inconclusive = small, poorly fitted or top-dose-only effect; inactive = flat fitted curve, though single readings scatter. A potency beside an inconclusive call is a rough fit, not a confirmed value.

Target: Alanine aminotransferase 2 (Homo sapiens) (UniProt Q8TD30)
Chain of UniProt Q8TD30 (Q8TD30 whole entry, looked up): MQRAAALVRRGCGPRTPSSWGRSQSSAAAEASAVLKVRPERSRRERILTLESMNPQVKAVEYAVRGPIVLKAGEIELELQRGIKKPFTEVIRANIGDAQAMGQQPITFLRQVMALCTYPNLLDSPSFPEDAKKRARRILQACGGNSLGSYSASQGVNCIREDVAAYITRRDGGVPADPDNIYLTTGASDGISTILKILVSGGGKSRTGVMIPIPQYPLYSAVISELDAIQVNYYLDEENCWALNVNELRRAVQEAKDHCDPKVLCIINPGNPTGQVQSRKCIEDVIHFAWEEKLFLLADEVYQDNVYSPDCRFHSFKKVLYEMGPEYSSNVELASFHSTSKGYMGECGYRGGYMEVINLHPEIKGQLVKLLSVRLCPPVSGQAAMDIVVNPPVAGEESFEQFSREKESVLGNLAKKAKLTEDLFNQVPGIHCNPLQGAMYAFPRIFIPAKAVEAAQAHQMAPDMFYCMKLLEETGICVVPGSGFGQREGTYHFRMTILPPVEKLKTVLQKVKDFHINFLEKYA
Test: Primary qHTS assay for inhibitors of Glutamate pyruvate transaminase 2 (GPT2); note: nearly all actives have a fitted effect of over 60% in size
Settings: Recombinant GPT2, coupled pyruvate oxidase/HRP Amplex Red fluorescence; series mostly up to 57.7 µM
Method in brief: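 Fluorescence of coupled pyruvate oxidase/HRP/Amplex Red system (50uM Amplex, 30 min, dark) reports pyruvate formed by GPT2. Enzyme reaction: 10ng/uL GPT2, 2mM L-alanine, 250uM a-KG, 30 min room temperature, pH 7.5; 50uM AOA control.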
Potency is the fitted concentration of half-maximal effect; tags give direction and shape of the fitted curve.

| Structure (SMILES) | Potency |
| --- | --- |
| O=C1CCCc2occ(C(=O)N3CCCC4(CCNC4)C3)c21 (stereo not drawn) | inconclusive: 4.47 µM [inhibitor, full curve, poor fit] |
| CN1Cc2c(N)cccc2C(c2ccccc2)C1 (stereo not drawn) | inconclusive: 35.5 µM [inhibitor, single point] |
| COC(=O)COCC(=O)N1Cc2[nH]cnc2C[C@H]1c1nc(-c2ccc(F)c(Cl)c2)no1 | inactive |
| Cc1c(NC(=O)CCc2cc3n(n2)CCNC3)c(C)n(C)c(=O)c1C(N)=O | inconclusive: 39.8 µM [inhibitor, single point] |
| C1=C/COCc2cc(ccc2OCCN2CCCC2)Nc2nccc(n2)-c2cccc(c2)COC/1 | inconclusive: 7.08 µM [inhibitor, single point] |
| COc1cccc(C(=O)N2CCC3(CC2)NC(=O)N(c2ccccc2)N3)c1 | inconclusive: 22.4 µM [inhibitor, partial curve, poor fit] |
| Cn1cc(CN2CCN(c3cnccn3)CC2)c(-c2ccc(C3CCCCC3)cc2)n1 | inactive |
| CN1CC2(CCCN(CC3CC3)C2)c2cc(C(=O)NCCOc3ccccc3)ccc21 (stereo not drawn) | inactive |
| COC(=O)C1CCCN1C(=O)c1c(C)oc2c1CN(Cc1ccc(C)cc1)CC2 (stereo not drawn) | inconclusive: 17.8 µM [inhibitor, partial curve] |
| CN1CC(=O)N(c2ccc([N+](=O)[O-])cc2)Cc2c1ncnc2N1CCN(c2ncccn2)CC1 | inconclusive: 3.55 µM [inhibitor, partial curve, poor fit] |
| COc1ccccc1CC(=O)NCc1nnc2cc(-c3nc(C(C)C)no3)ccn12 | inactive |
| COc1cccc(CN2CCOC3CCN(CCCc4ccccc4)CC3C2=O)c1 (stereo not drawn) | inactive |
| Cc1ccc(C(=O)N2CCC(C(=O)N3CCCC(c4nc5ccncc5[nH]4)C3)CC2)cc1 (stereo not drawn) | inconclusive: 35.5 µM [inhibitor, single point] |
| COC1CC(O[C@H]2CC[C@@]3(C)C(=CC[C@]4(O)C3[C@H](OC(C)=O)[C@@H](OC(=O)c3ccccc3)[C@]3(C)[C@@H](C(C)=O)CC[C@@]34O)C2)OC(C)C1OC1CC(OC)C(OC2CC(OC)C(OC3OC(C)C(OC4OC(CO)C(O)C(O)C4O)C(OC)C3O)C(C)O2)C(C)O1 (stereo partly drawn) | inconclusive: 0.794 µM [inhibitor, partial curve, poor fit] |
| COc1ccc(C(=O)N2CCC(CCn3c(C)cnc3-c3cccnc3)CC2)cc1 | inconclusive: 39.8 µM [inhibitor, single point] |
| CNC(=O)c1ccn2nccc2c1 | inconclusive: 63.1 µM [inhibitor, single point] |
| O=C(CCC[C@@H]1[C@H]2CCCN3CCC[C@@H](CN1C(=O)c1cc(F)ccc1F)[C@@H]23)Nc1ccccc1 | inconclusive: 6.31 µM [inhibitor, single point] |
| CC(C)(O)c1ccccc1CC[C@@H](SCC1(CC(=O)O)CC1)c1cccc(/C=C/c2ccc3ccc(Cl)cc3n2)c1 | inconclusive: 25.1 µM [inhibitor, single point] and inconclusive: 6.31 µM [inhibitor, single point] |
| Clc1ccc2ncc(-c3cccc(NC4CNC4)n3)n2c1 | inconclusive: 0.344 µM [inhibitor, full curve, poor fit] |

| Structure (SMILES) | Potency |
| --- | --- |
| CO[C@H]1C(=O)N(C(C)C)[C@H]1C1CCN(C(=O)Cn2nc(C(F)(F)F)cc2C)CC1 | inactive |
| CN(C)C(=O)c1ccc(-c2ncc3c(n2)OCCN(Cc2ccc(F)cc2F)C3=O)cc1 | inconclusive: 56.2 µM [inhibitor, single point] |
| COc1ccc(-c2cc(C(=O)NCc3ccccc3Cl)c3cnn(C)c3n2)cc1 | inactive |
| COc1ccccc1-c1cc(-c2ccc(=O)[nH]c2)c2cncn2c1 | inconclusive: 12.6 µM [inhibitor, partial curve, poor fit] |
| CN(Cc1ccc(F)cc1)C(=O)c1cn(Cc2ccccc2C(F)(F)F)nn1 | inconclusive: 39.8 µM [inhibitor, single point] |
| CN(C)C[C@H]1O[C@@H](CO)[C@@H](O)[C@H]1N1CCN(c2cccc(C(F)(F)F)c2)CC1 | inconclusive: 11.2 µM [inhibitor, partial curve] |
| CN1[C@@H](CCC(=O)N2CCOCC2)CNC(=O)[C@@H]2[C@H]1CCN2CC(C)(C)C | inconclusive: 56.2 µM [inhibitor, single point] |
| CCn1cc(-c2ccc(C)cc2)cc1C(=O)N1CCN(c2ccccn2)CC1 | inconclusive: 2.24 µM [inhibitor, full curve, poor fit] |
| COc1cccc(CC(=O)N2CCC3(CC2)NC(=O)N(c2ccccc2)N3)c1 | inconclusive: 39.8 µM [inhibitor, single point] |
| COc1c(N2CCNC(C)C2)c(F)cc2c(=O)c(C(=O)O)cn(C3CC3)c12 (stereo not drawn) | inconclusive: 39.8 µM [inhibitor, single point] |
| COc1cccc(S(=O)(=O)N2CCCCCNC(=O)CC2c2ccccc2)c1 (stereo not drawn) | inactive |
| COc1ccc(-c2noc(-c3cccn3CC(=O)Nc3ccc(N(C)C)cc3)n2)cc1F | inactive |
| O=C(Nc1ccc(F)cc1F)N1CCC(OC2CCN(Cc3ccccc3)CC2)CC1 | inconclusive: 39.8 µM [inhibitor, partial curve, poor fit] |
| Cn1ccnc1CN1CCOC[C@H](Oc2ccc(C(F)(F)F)cc2)C1 | inconclusive: 8.91 µM [inhibitor, partial curve, poor fit] |
| CCOC(=O)[C@@](C)(N)Cc1ccc(O)c(O)c1 | inconclusive: 4.47 µM [inhibitor, full curve, poor fit] |
| c1ccc(CN2CCNc3cnc(Nc4ccncn4)cc3C2)cc1 | inconclusive: 3.16 µM [inhibitor, full curve, poor fit] |
| COc1cccc(C(=O)NC2CCCN(c3ccnc4ccnn34)C2)c1 (stereo not drawn) | inactive |
| CN1CCN(c2ccc(-c3nccc4c(=O)cc(N(C)C5CCOCC5)oc34)cn2)CC1 | inactive |
| CNC(=O)CCn1ncc2cc(OCc3ccccc3-c3c(F)cccc3OC)ccc21 | inactive |
